Test results from patent US20220333079A1, “GENETICALLY MODIFIED NK CELL LINE TRANSDUCED WITH GENE ENCODING NOVEL CHIMERIC ANTIGEN RECEPTOR AND USE THEREOF” (SLBIGEN INC., priority 2019, published 2022).

Columns and labels:
Test in all cases: FACS binding to cells
Conditions in all cases: 1 μg protein
[1] = test system: FLT3+ EOL-1 cell line; parameters: species or system human
Experimental: (§1) The acute myeloid leukemia cell lines EOL-1, MOLM-13, and REH cell lines known to express FLT3 protein on the cell surface, as well as the FLT3-negative cell lines K562, Daudi and normal human bone marrow cells (2.5×05 cells) were washed twice with FACS buffer. Then, 4 μl of Human TruStain FcX (Fc Receptor Blocking Solution) (cat #422302, Biolegend, USA) diluted in 100 μl of FACS buffer was treated to the cells and reacted at room temperature for 10 minutes. After the reaction was completed, 1 μg of the prepared anti-FLT3-scFv-Fc protein was added to the FACS tube and reacted at 4° C. for 20 minutes. After washing the unbound antibodies with FACS buffer, 3 μl of anti-human IgG-PE (cat #: 409304, Biolegend, USA) secondary antibody was diluted in 100 μl of FACS buffer was treated and incubated at 4° C. for 20 minutes. After the reaction, the unbound antibodies was washed twice with FACS buffer, and then FACS analysis was performed. In the case of a commercialized anti-human FLT3 (CD135)-PE antibody (cat #313308, Biolegend, USA), after treatment with Fc receptor blocking solution, 3 μl was treated, reacted at 4° C. for 20 minutes, and finally washed, followed by FACS analysis was performed.

[2] = test system: FLT3+ MOLM-13 cell line; parameters: species or system human
Experimental: as §1

[3] = test system: FLT3+ REH cell line; parameters: species or system human
Experimental: as §1

[4] = test system: FLT3- Daudi cells; parameters: species or system human
Experimental: as §1

[5] = test system: FLT3- K562 cells; parameters: species or system human
Experimental: as §1

[6] = test system: normal human bone marrow cells
Experimental: as §1

B1: anti-FLT3 scFv-hyFc: recombinant fusion of anti-FLT3 scFv (SEQ ID NO:13) and modified Fc region (SEQ ID NO:1) (protein)
chain: EVQLVQSGAEVKKPGSSVKVSCKASGGTFSSYAISWVRQAPGQGLEWMGGIIPIFGTANYAQKFQGRVTITADKSTSTAYMELSSLRSEDTAVYYCATFALFGFREQAFDIWGQGTTVTVSSGGGGSGGGGSGGGGS[about 100 residues not given here]FGPGTKVDIKAAAEPKSPDKTHTCPPCPSHTQPLGVFLFPPKPKDQLMISRTPEVTCVVVDVSQEDPEVQFNWYVDGVEVHNAKTKPREEQFNSTYRVVSVLTVLHQDWLNGKEYKCKVSNKGLPSSIEKTISKAKGQPREPQVYTLPPSQEEMTKNQVSLTCLVKGFYPSDIAVEWESNGQPENNYKTTPPVLDSDGSFFLYSRLTVDKSRWQEGNVFSCSVLHEALHNHYTQKSLSLSLGK
[1]
  binding to cells: strong binding
[2]
  binding to cells: strong binding
[3]
  binding to cells: strong binding
[4]
  binding to cells: did not bind
[5]
  binding to cells: did not bind
[6]
  binding to cells: did not bind
